The subject of this test is NCI-H322M lung. The test is described as follows: inhibition of tumour cell growth, NCI panel, 48 h.

Experimental findings from PubChem BioAssay (NCI) are described below.

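Method: 48-hour compound exposure of cells in 96-well plates, five concentrations, linear interpolation of endpoints. GI50: concentration for 50% inhibition of growth. TGI denotes the concentration required for complete inhibition of growth.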

As to `C/C(=C(\c1ccc(O)cc1)c1ccc(OCCN2CCCCCC2)cc1)c1ccc(Cl)cc1`, the GI50 was 6.03 µM and the TGI turned out to be 11.8 µM.

In the case of `C#C[C@]1(O)CC[C@H]2[C@@H]3CC=C4c5sc(Nc6cccc(F)c6)nc5CC[C@]4(C)[C@H]3CC[C@@]21C`, the GI50 was 4.6 µM and the TGI is 21.3 µM.
